According to PubChem BioAssay AID1963985 (Molecular Pharmacology Branch, DTP, NCI, 2024):
Some entries of the source have several records that differ or are many. The list is limited to them. There may be further records. Results that share an entry are repeats across runs, samples, wells, individuals or studies.

System: 252836-082-R-J2-PDC tumor spheroids, viability
Test: Anticancer human tumor 252836-082-R-J2-PDC patient-derived head and neck squamous cell carcinoma cell line growth inhibition [PI3K]
Settings: spheroids with HUVEC and MSC; for viability, T/C: stronger effect = lower value; for IC50: compound alone
Source text: Combinatorial screen of targeted agents with the PI3K inhibitors inavolisib, alpelisib, duvelisib, and copanlisib in multi-cell type tumor spheroids
A high-throughput screen of multi-cell type tumor spheroids was designed to identify active combinations of targeted small molecules and PI3K pathway inhibitors. Complex spheroids include a stromal component modeled by human endothelial cells (HUVEC) and fibroblasts modeled by human mesenchymal stem cells (MSCs). The concentration ranges selected for each drug and investigational agent were based upon clinically achievable concentrations if the clinical Cmax of the agent was known.
Compounds. The drugs and investigational agents: inavolisib (NSC800729), alpelisib (NSC765974), duvelisib (NSC772469), copanlisib (NSC816437), ipatasertib (NSC767898), afuresertib (NSC778305), talazoparib (NSC767125), sapanisertib (NSC764658), selumetinib (NSC741078), tovorafenib (DAY101, NSC766906), vemurafenib (NSC761431), ravoxertinib (NSC781343), sotorasib (NSC818433), MRTX1133 (NSC 836407), abemaciclib (NSC 768073), palbociclib (NSC758247), venetoclax (NSC 766270), SY5609 (NSC837396), enzalutamide (NSC755605), and darolutamide (NSC825331), were obtained from the National Cancer Institute (NCI) Developmental Therapeutics Program Chemical Repository. The FDA-approved anticancer drug set is available from the NCI Developmental Therapeutics Program. […] The stock solutions were prepared in dimethyl sulfoxide (DMSO, Sigma-Aldrich, St. Louis, MO, cat. D2650) at 800-fold the tested concentration and stored at -70 degrees C prior to their use. All drugs and investigational agents were tested over a range starting from a high concentration at or near the clinical Cmax and decreasing in half-log increments. If the clinical Cmax for an agent had not been determined, the highest concentration tested was 10 microM.
Cell Culture. All cells were maintained in an incubator at 37 degrees C and 5% CO2 with 95% humidity. The PDC lines were cultured according to standard operating procedures established by the NCI PDMR (https://pdmr.cancer.gov/sops/default.htm). All PDCs were thawed and cultured in Matrigel-coated flasks prepared with a working solution of 1X Ham's F-12 nutrient mix, without supplementation (Invitrogen, Waltham, MA, cat. 11765054), 100 U/mL penicillin-streptomycin (Invitrogen, cat. 15140122), and 2.5% Matrigel (Corning Inc., Corning, NY, cat. 354248) for the first three passages. The 354836-022-R-J1-PDC, 475296-252-R-J1-PDC, and 997726-040-R-J2-PDC lines were cultured in 6A media, which includes advanced DMEM/F-12 (Thermo Fisher Scientific, cat. 12634028), 10 mM HEPES (Thermo Fisher Scientific, cat. 15630080), 1X GlutaMAX supplement (Thermo Fisher Scientific, cat. 35050061), 0.1 mg/mL primocin (InvivoGen, San Diego, CA, cat. ant-pm-2), 10% defined fetal bovine serum, heat inactivated (HyClone Laboratories Inc., Logan, UT, cat. SH30070.03HI), 50% L-WRN conditioned media (ATCC, cat. CRL-3276), 1.25 mM N-Acetyl-L-cysteine (Sigma-Aldrich, cat. A9165), 10 mM nicotinamide (Sigma-Aldrich, cat. N0636), 1X B-27 supplement (Thermo Fisher Scientific, cat. 17504044), 1X N-2 supplement (Thermo Fisher Scientific, cat. 17502048), and 10 microM Y-27632 dihydrochloride (Tocris Bioscience, Bristol, United Kingdom, cat. 1254). The 624824-186-R-J2-PDC line was cultured in 6C/Colon 1B media, which includes all 6A media components plus 50 ng/mL human EGF recombinant protein (Thermo Fisher Scientific, cat. PHG0311). […]
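Also: spheroids exposed to agents for seven days before readout.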
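For viability, T/C in this document: percent of vehicle DMSO control viability so 100% = untreated growth.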

For `CCN1CCN(Cc2ccc(Nc3ncc(F)c(-c4cc(F)c5nc(C)n(C(C)C)c5c4)n3)nc2)CC1`, the viability, T/C (compound alone 1 µM) was 87.8, 83.9, 111, 85.5%.

`CCCS(=O)(=O)Nc1ccc(F)c(C(=O)c2c[nH]c3ncc(-c4ccc(Cl)cc4)cc23)c1F` was tested, and the viability, T/C (compound alone 0.1 µM) was 102, 105, 83.6, 111% and the viability, T/C (compound alone 0.316 µM) was 93.7, 84.5, 111, 107%.

With `Cn1cnc2c(F)c(Nc3ccc(Br)cc3Cl)c(C(=O)NOCCO)cc21` the IC50 was 2.95 µM, > 3 µM, 2.52 µM, 2.47 µM.

With `CC1(C)CCC(CN2CCN(c3ccc(C(=O)NS(=O)(=O)c4ccc(NCC5CCOCC5)c([N+](=O)[O-])c4)c(Oc4cnc5[nH]ccc5c4)c3)CC2)=C(c2ccc(Cl)cc2)C1` the viability, T/C (compound alone 3.16 µM) was 109, 101, 79.7, 87%, the viability, T/C (compound alone 10 µM) was 2.49, 8.54, 90.5, 17.4% and the IC50 was 5.64 µM, 5.96 µM, > 10 µM, 5.83 µM.

For `C#Cc1c(F)ccc2cc(O)cc(-c3ncc4c(N5CC6CCC(C5)N6)nc(OCC56CCCN5CC(F)C6)nc4c3F)c12` (stereo not given), the viability, T/C (compound alone 0.1 µM) was 115, 71.9, 95.1, 89.6% and the viability, T/C (compound alone 0.316 µM) was 79.5, 81, 94.5, 105%.

With `CNC(=O)c1ccc(N2C(=S)N(c3ccc(C#N)c(C(F)(F)F)c3)C(=O)C2(C)C)cc1F` the viability, T/C (compound alone 0.0316 µM) was 89, 118, 97.5, 95.6%.

`CC(Nc1ncnc2nc[nH]c12)c1cc2cccc(Cl)c2c(=O)n1-c1ccccc1` (stereo not given) was tested, and the viability, T/C (compound alone 1 µM) was 90.3, 86.7, 92.6, 102, 114, 80.7, 107, 89.5%.

In the case of `C=CC(=O)N1CCN(c2nc(=O)n(-c3c(C)ccnc3C(C)C)c3nc(-c4c(O)cccc4F)c(F)cc23)C(C)C1` (stereo not given), the viability, T/C (compound alone 0.316 µM) is reported as 125, 102, 93.4, 98.9%, the viability, T/C (compound alone 1 µM) is reported as 118, 92.6, 99.1, 94.5% and the viability, T/C (compound alone 3.16 µM) is reported as 97.9, 117, 131, 113%.

`CC(Nc1ccc2c(c1)OCCn1cc(N3C(=O)OCC3C(F)F)nc1-2)C(N)=O` (stereo not given) was tested, and the IC50 (run of 06/12/2023) was 367 nM, > 1 µM, 490 nM, 595 nM, 633 nM, 323 nM, 364 nM.
